Results: the supplement of paper PMC3334620
In all, about 33,000 sequences were measured (“E-score (-0.5 to 0.5)”: median about -0.035, highest 2% from about 0.35 on). This is one part of the list.

Molecular target: T1, Pdr3 (UniProt P33200)
T1 sequence: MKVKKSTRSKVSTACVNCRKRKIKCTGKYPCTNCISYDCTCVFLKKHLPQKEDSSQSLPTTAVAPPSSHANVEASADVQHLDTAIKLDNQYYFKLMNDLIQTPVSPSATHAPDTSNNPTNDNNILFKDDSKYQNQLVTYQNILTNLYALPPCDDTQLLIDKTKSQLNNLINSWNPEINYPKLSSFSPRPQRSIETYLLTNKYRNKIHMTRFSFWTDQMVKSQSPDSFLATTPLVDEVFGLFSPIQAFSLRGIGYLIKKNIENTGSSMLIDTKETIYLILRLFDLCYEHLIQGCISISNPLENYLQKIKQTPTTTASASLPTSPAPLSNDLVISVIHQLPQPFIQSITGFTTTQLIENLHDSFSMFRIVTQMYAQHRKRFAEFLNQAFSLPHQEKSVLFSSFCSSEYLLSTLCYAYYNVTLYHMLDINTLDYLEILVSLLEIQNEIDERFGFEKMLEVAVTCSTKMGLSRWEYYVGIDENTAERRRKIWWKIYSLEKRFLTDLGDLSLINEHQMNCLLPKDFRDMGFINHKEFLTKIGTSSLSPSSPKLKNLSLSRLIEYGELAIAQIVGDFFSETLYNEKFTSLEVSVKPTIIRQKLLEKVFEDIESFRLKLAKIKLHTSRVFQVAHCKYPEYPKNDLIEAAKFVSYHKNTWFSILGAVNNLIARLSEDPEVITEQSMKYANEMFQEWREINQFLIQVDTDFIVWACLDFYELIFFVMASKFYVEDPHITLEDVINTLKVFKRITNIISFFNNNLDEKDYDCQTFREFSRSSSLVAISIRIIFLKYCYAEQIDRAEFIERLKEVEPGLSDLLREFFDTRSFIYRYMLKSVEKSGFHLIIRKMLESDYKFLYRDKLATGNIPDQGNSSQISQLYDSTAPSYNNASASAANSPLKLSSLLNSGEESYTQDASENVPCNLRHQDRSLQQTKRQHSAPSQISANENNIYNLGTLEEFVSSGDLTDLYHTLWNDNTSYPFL
Test: PBM E-score (8-mer binding enrichment) (E-score (-0.5 to 0.5)); higher = stronger / more preferred TF binding; most listed sequences are background and not binding sites
Details: protein concentration: 200 nM; construct: GST-full length
How it was run: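 For each ungapped eight-base word taken together with its reverse complement, the Universal PBM Analysis Suite assigned an E-score. Binding data came from GST-tagged yeast transcription factors, applied at about 100-200 nM, on universal all-10-mer Agilent arrays made double-stranded by primer extension. Fluorescent anti-GST marked bound protein, and scans were normalised with masliner.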

Row | Sequence | PBM E-score
1 | ACATCCAG | -0.105
2 | AAGGCGCA | -0.0103
3 | AGAGAAAC | -0.178
4 | CCAATGCA | -0.126
5 | GTAAACGA | -0.15
6 | AACCGGCC | 0.203
7 | GTGACTGA | -0.106
8 | GCGAGAAA | -0.0403
9 | CTGGGGCA | -0.276
10 | TAACGTCA | -0.206
11 | AGAACCCC | 0.0659
12 | GGCACAGA | 0.0327
13 | AGCCGCCT | 0.00711
14 | CGCGGACG | 0.342
15 | ACTCTGAT | -0.0309
16 | ACTGGCGC | 0.0452
17 | CCCTTCTA | -0.133
18 | ATTGAACG | -0.108
19 | ATCGTTGC | -0.136
20 | CTGGTAAA | -0.167
21 | ACGCTTTG | -0.00224
22 | GCTATCCC | 0.0292

Row | Sequence | PBM E-score
23 | CAGCCTAG | -0.0778
24 | AAGCAAAT | -0.188
25 | ATCACGAG | -0.285
26 | AGGACCAG | -0.0599
27 | AGCGTAAG | -0.0892
28 | CATGTCGC | -0.0537
29 | AGCTAGGC | -0.136
30 | ACGTCCCA | -0.176
31 | ACTGCGAA | -0.212
32 | AGGGTAGA | -0.293
33 | GGTACGGA | 0.29
34 | ATGACTAC | -0.177
35 | CTAAGCGA | -0.197
36 | CCAGTAAG | -0.158
37 | GCTCCTAC | -0.154
38 | GCGCAGCA | -0.207
39 | GCAGCGAC | -0.0549
40 | GGTTGCCA | 0.233
41 | AGCCCCCG | 0.0472
42 | ACAAGATA | -0.0778
43 | CGCCAACG | 0.0596
44 | GGACGGAA | 0.429

Row | Sequence | PBM E-score
45 | AGTTTGTC | -0.148
46 | ATCGCTAC | -0.0447
47 | ACGGTATG | 0.0196
48 | AGTTACCG | 0.216
49 | TGAACCAA | -0.0189
50 | AAATCAAA | -0.0314
51 | ATCTATAG | -0.139
52 | CTGATCCA | -0.00794
53 | ACATCAAG | -0.0572
54 | CGCGCTCC | 0.308
55 | GAGTGCTA | -0.0621
56 | AACTCCGG | 0.416
57 | GCGTATAA | 0.00264
58 | GTAGACAA | -0.0289
59 | CATATTCG | -0.00831
60 | ACATCTGG | -0.101
61 | GAAGGAGC | -0.327
62 | CTCCACGA | -0.144
63 | GAATTGAC | -0.0293
64 | ATGCCTTG | -0.197
65 | CCAGGGCG | 0.0977
66 | AATATAGG | 0.0479

Row | Sequence | PBM E-score
67 | TCGAACAA | 0.0601
68 | CGTGGGAC | 0.0628
69 | CTGGCTCA | -0.0417
70 | GCGGGTCC | 0.243
71 | GCTATTCC | 0.243
72 | CGTCCTTA | -0.107
73 | AAAGAGCG | -0.00641
74 | AACAAGCC | -0.18
75 | GCCCCACA | -0.1
76 | ATCGTCGC | -0.103
77 | CAGCGCGG | 0.238
78 | ATCCTCCG | 0.2
79 | GACAATAA | 0.113
80 | CTAGTAAC | -0.114
81 | CGACACTC | 0.0775
82 | ACCTCCTC | -0.205
83 | CGCATCGC | -0.0738
84 | GAATCTCC | 0.225
85 | CCCTTCTC | -0.24
86 | CTTGTGTA | -0.0731
87 | CCGAAAGA | 0.23
88 | CACCGGTG | 0.0753

Row | Sequence | PBM E-score
89 | ATTGATGG | -0.0929
90 | CGACGGAG | 0.331
91 | CCTACGAA | -0.0554
92 | GAAGGTCA | -0.19
93 | CCGTTCAC | 0.0894
94 | AGACCCCT | -0.328
95 | ATCAATGA | 0.0606
96 | GGCCCACC | 0.0165
97 | CGGACGAA | 0.372
98 | ACGGGCCC | 0.264
99 | GGACTTGA | 0.00562
100 | ATTCTTGG | 0.11
101 | ATTAAACC | 0.192
102 | GACCCGCA | 0.0817
103 | CCTACTCC | -0.0705
104 | GCGCTCCA | 0.0949
105 | ACGTACTA | -0.116
106 | CGATTCTC | 0.0688
107 | GAGGGGAA | 0.156
108 | ACCTTGGG | 0.00858
109 | AGGTGGCG | -0.1
